# In the supplement of paper PMC12217912:
# This is one part of the list. The full chains were built here from the parent and the listed change. Inactive controls read about 0.05.
# B1: TEV protease; numbered along this chain (parent)
# chain: MGESLFKGPRDYNPISSSICHLTNESDGHTTSLYGIGFGPFIITNKHLFRRNNGTLVVQSLHGVFKVKDTTTLQQHLVDGRDMIIIRMPKDFPPFPQKLKFREPQREERICLVTTNFQTKSMSSMVSDTSCTFPSGDGIFWKHWIQTKDGQCGSPLVSTRDGFIVGIHSASNFTNTNNYFTSVPKNFMELLTNQEAQQWVSGWRLNADSVLWGGHKVFMVKPEEPFQPVKEATQL
# Variants of: B1
# Test: raw area under fraction-flipped curve 0-4 h after induction (AUC4h, not background-subtracted), DNA-recorder readout of cleavage of the substrate (dimensionless); higher = more cleavage of the substrate by the protease variant
# Details: temperature: 34 °C; time window: 0-4 h after rhamnose induction
# Method: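 In vivo DNA recorder in E. coli TOP10(DE3) ΔrhaA at 34 °C. Each TEVp single-site mutant (parent TEVp 0) is paired with a single-site variant of the 7-mer TEVs (canonical ENLYFQ|S). The substrate sits between flexible linkers in a Bxb1-sfGFP-TEVs-SsrA fusion, so cleavage stabilises Bxb1 and speeds flipping of a recombination array, read by NGS. The value is the raw area under the fraction-flipped curve over 0-4 h after rhamnose induction (AUC4h), with ≥20 reads per time point. It is not background-subtracted; inactive controls average about 0.047.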
# 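Also: Bxb1 expression induced with 0.2% (w/v) L-rhamnose at OD600 near 0.5, cultures sampled hourly, flipped fraction per protease–substrate barcode pair counted by paired-end Illumina sequencing.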
Variant,area with substrate ENLAFQS,area with substrate ENLDFQS,area with substrate ENLEFQS,area with substrate ENLFFQS,area with substrate ENLHFQS,area with substrate ENLIFQS,area with substrate ENLKFQS,area with substrate ENLLFQS,area with substrate ENLMFQS,area with substrate ENLNFQS,area with substrate ENLQFQS,area with substrate ENLRFQS,area with substrate ENLSFQS,area with substrate ENLWFQS,area with substrate ENLCFQS,area with substrate ENLPFQS,area with substrate ENLVFQS,area with substrate ENLTFQS,area with substrate ENLGFQS
MGESLFKGPRDYNPISSSICHLTNESDGHTTSLYGIGFGPFIITNKHLFRRNNGTLVVQSLHGVFKVKDTTTLQQHLADGRDMIIIRMPKDFPPFPQKLKFREPQREERICLVTTNFQTKSMSSMVSDTSCTFPSGDGIFWKHWIQTKDGQCGSPLVSTRDGFIVGIHSASNFTNTNNYFTSVPKNFMELLTNQEAQQWVSGWRLNADSVLWGGHKVFMVKPEEPFQPVKEATQL [V78A],0.062,0.062,0.0531,0.0556,0.0454,0.073,0.0668,0.0394,0.0747,0.0603,0.0622,0.0522,0.0737,0.0649,–,–,–,–,–
MGESLFKGPRDYNPISSSICHLTNESDGHTTSLYGIGFGPFIITNKHLFRRNNGTLVVQSLHGVFKVKDTTTLQQHTVDGRDMIIIRMPKDFPPFPQKLKFREPQREERICLVTTNFQTKSMSSMVSDTSCTFPSGDGIFWKHWIQTKDGQCGSPLVSTRDGFIVGIHSASNFTNTNNYFTSVPKNFMELLTNQEAQQWVSGWRLNADSVLWGGHKVFMVKPEEPFQPVKEATQL [L77T],0.0657,–,0.0684,0.0626,–,0.0544,0.0648,–,0.0682,–,0.0602,–,0.0603,–,–,–,–,–,–
MGESLFKGPRDYNPISSSICHLTNESDGHTTSLYGIGFGPFIITNKHLFRRNNGTLVVQSLHGVFKVKDTTTLQQHLVDGRDMIIIRMWKDFPPFPQKLKFREPQREERICLVTTNFQTKSMSSMVSDTSCTFPSGDGIFWKHWIQTKDGQCGSPLVSTRDGFIVGIHSASNFTNTNNYFTSVPKNFMELLTNQEAQQWVSGWRLNADSVLWGGHKVFMVKPEEPFQPVKEATQL [P89W],0.0913,0.0433,–,–,0.0348,0.0721,0.0717,–,0.0674,0.0457,–,–,0.0479,–,0.0602,0.0285,0.0799,–,–
MGESLFKGPRDYNPISSSICHLTNESDGHTTSLYGIGFGPFIITNKHLFRRNNGTLVVQSLHGVFKVKDTTTLQQHLVDGRDMIIIRMEKDFPPFPQKLKFREPQREERICLVTTNFQTKSMSSMVSDTSCTFPSGDGIFWKHWIQTKDGQCGSPLVSTRDGFIVGIHSASNFTNTNNYFTSVPKNFMELLTNQEAQQWVSGWRLNADSVLWGGHKVFMVKPEEPFQPVKEATQL [P89E],0.0529,0.066,0.0589,0.0984,–,0.0987,0.0586,0.0587,0.0722,0.0605,–,0.0477,–,0.0559,–,0.0877,0.0931,0.0668,–
MGESLFKGPRDYNPISSSICHLTNESDGHTTSLYGIGFGPFIITNKHLFRRNNGTLVVQSLHGVFKVKDTTTLQQHLVDGRDMIIIRMPKDFPYFPQKLKFREPQREERICLVTTNFQTKSMSSMVSDTSCTFPSGDGIFWKHWIQTKDGQCGSPLVSTRDGFIVGIHSASNFTNTNNYFTSVPKNFMELLTNQEAQQWVSGWRLNADSVLWGGHKVFMVKPEEPFQPVKEATQL [P94Y],0.0597,0.067,–,0.0749,–,–,0.0817,–,–,0.0802,0.0409,0.0913,0.0346,0.0517,0.0646,0.0873,0.0852,–,–
MGESLFKGPRDYNPISSSICHLTNESDGHTTSLYGIGFGPFIITNKHLFRRNNGTLVVQSLHGVFKVKDTTTLQQHLVDGRDMIIIRMPKDFPQFPQKLKFREPQREERICLVTTNFQTKSMSSMVSDTSCTFPSGDGIFWKHWIQTKDGQCGSPLVSTRDGFIVGIHSASNFTNTNNYFTSVPKNFMELLTNQEAQQWVSGWRLNADSVLWGGHKVFMVKPEEPFQPVKEATQL [P94Q],0.0726,0.0649,0.0692,0.113,0.0728,0.0722,0.0776,0.0916,0.0798,0.0684,–,0.0731,0.0659,0.0545,–,0.0716,0.0928,–,–
MGESLFKGPRDYNPISSSICHLTNESDGHTTSLYGIGFGPFIITNKHLFRRNNGTLVVQSLHGVFKVKDTTTLQQHLVDGRDMIIIRMPKDFPEFPQKLKFREPQREERICLVTTNFQTKSMSSMVSDTSCTFPSGDGIFWKHWIQTKDGQCGSPLVSTRDGFIVGIHSASNFTNTNNYFTSVPKNFMELLTNQEAQQWVSGWRLNADSVLWGGHKVFMVKPEEPFQPVKEATQL [P94E],0.0511,0.0429,0.0731,0.088,0.0641,–,0.0838,0.0687,0.073,0.0855,–,0.0717,–,0.0595,0.0646,0.0732,0.0764,–,–
MGESLFKGPRDYNPISSSICHLTNESDGHTTSLYGIGFGPFIITNKHLFRRNNGTLVVQSLHGVFKVKDTTTLQQHLVDGGDMIIIRMPKDFPPFPQKLKFREPQREERICLVTTNFQTKSMSSMVSDTSCTFPSGDGIFWKHWIQTKDGQCGSPLVSTRDGFIVGIHSASNFTNTNNYFTSVPKNFMELLTNQEAQQWVSGWRLNADSVLWGGHKVFMVKPEEPFQPVKEATQL [R81G],0.0755,0.0647,–,0.0708,–,0.0626,0.0593,–,–,–,0.0597,0.0762,0.0721,–,–,0.0533,–,–,0.0696
MGESLFKGPRDYNPISSSICHLTNESDGHTTSLYGIGFGPFIITNKHLFRRNNGTLVVQSLHGVFKVKDTTTLQQHLVDGIDMIIIRMPKDFPPFPQKLKFREPQREERICLVTTNFQTKSMSSMVSDTSCTFPSGDGIFWKHWIQTKDGQCGSPLVSTRDGFIVGIHSASNFTNTNNYFTSVPKNFMELLTNQEAQQWVSGWRLNADSVLWGGHKVFMVKPEEPFQPVKEATQL [R81I],0.0761,0.0559,–,0.0836,0.0619,0.0873,–,0.0661,–,0.0631,0.0619,–,0.0713,0.0604,–,0.0635,–,–,–
